Laboratory results as given in PubChem BioAssay AID743255 (National Center for Advancing Translational Sciences (NCATS), 2014).
In all, about 390,000 compounds went through this assay and about 910 (0.23%) were called active. Inconclusive results (about 5%) are left out. The call rests on the fitted dose curve; in most records, active means well fitted inhibition curve with a large enough effect; inconclusive means small, poorly fitted or top-dose-only effect; inactive means no such curve, though single readings can be large or run the other way. Only a part is listed here, and it is no random draw.

The compounds below were run against Ubiquitin carboxyl-terminal hydrolase 1 (Homo sapiens) (UniProt O94782) (assay: Inhibitors of USP1/UAF1: Primary Screen). Conditions: recombinant USP1/UAF1, Ub-Rhodamine cleavage fluorescence; activity change, negative = inhibition: at 57.1 µM (top of the series).
Description: Deubiquitinating enzymes (DUBs) are a class of enzymes that can cleave isopeptide bond formed between the C-terminal carboxylate of ubiquitin and a lysine side-chain amino group on the target protein. Among them, ubiquitin specific proteases (USPs) constitute the largest DUB family. Human USPs are emerging as promising targets for pharmacological intervention because of their connection to a number of human diseases, including prostate, colon and breast cancer (1, 2), pediatric acute lymphoblastic leukemia (3), and familial cylindromatosis (4). The advantage of inhibiting USPs lies in the potential specificity of therapeutic intervention that can lead to better efficacy and reduce nonspecific side effects. In a collaboration between the University of Delaware and the NIH Chemical Genomics Center, a high-throughput screen assay was developed to screen for USP1/UAF1 inhibitors. This miniaturized assay has a fluorescent read-out and is used to screen the NIH Molecular Libraries Small Molecule Repository (MLSMR) in order to identify a small molecule that inhibits USP1. NIH Chemical Genomics Center [NCGC] NIH Molecular Libraries Probe Centers Network [MLPCN] MLPCN Grant: DA030552 Assay Submitter (PI): Zhihao Zhuang, University of Delaware 1. Priolo, C., et al. (2006) The isopeptidase USP2a protects human prostate cancer from apoptosis. Cancer Res 66, 8625-8632 2. Popov, N., et al. (2007) The ubiquitin-specific protease USP28 is required for MYC stability. Nat Cell Biol 9, 765-774 3. De Pitta, C., et al. (2005) A leukemia-enriched cDNA microarray platform identifies new transcripts with relevance to the biology of pediatric acute lymphoblastic leukemia. Haematologica 90, 890-898 4. Kovalenko, A., et al. (2003) The tumour suppressor CYLD negatively regulates NF-kappaB signalling by deubiquitination. Nature 424, 801-805
3 microliters of reagents (buffer in columns 3 and 4 as negative control and 1nM USP1/UAF1 complex in columns 1, 2, and 5-48) are dispensed into Greiner black solid bottom 1536-well assay plates. Compounds are then transferred via Kalypsys pin tool equipped with 1536-pin array (10nl slotted pins, V&P Scientific, San Diego, CA). Following an incubation step of 15 min at room temperature, 1ul of Ub-Rho substrate (150nM final concentration) is added to initiate the reaction. The plates are immediately centrifuged at 1000 rpm for 15 seconds, and subsequently transferred to a ViewLux high-throughput CCD imager (PerkinElmer) wherein kinetic measurements of fluorescence are acquired using 480 nm excitation/540 nm emission filter set (6 reads every 60 seconds, see Table 1). All reagents are diluted in an assay buffer consisting of 50mM HEPES (pH 7.8), 0.5mM EDTA, 0.1 mg/ml BSA, 1mM TCEP, and 0.01% Tween-20.
Further: nearly all actives have a fitted effect of over 60% in size.
On the % scale 0 is the no-effect control and ±100 the full control effect; potency means the concentration at half of the fitted maximal effect.

Sequence of UniProt O94782 (O94782 whole entry, looked up): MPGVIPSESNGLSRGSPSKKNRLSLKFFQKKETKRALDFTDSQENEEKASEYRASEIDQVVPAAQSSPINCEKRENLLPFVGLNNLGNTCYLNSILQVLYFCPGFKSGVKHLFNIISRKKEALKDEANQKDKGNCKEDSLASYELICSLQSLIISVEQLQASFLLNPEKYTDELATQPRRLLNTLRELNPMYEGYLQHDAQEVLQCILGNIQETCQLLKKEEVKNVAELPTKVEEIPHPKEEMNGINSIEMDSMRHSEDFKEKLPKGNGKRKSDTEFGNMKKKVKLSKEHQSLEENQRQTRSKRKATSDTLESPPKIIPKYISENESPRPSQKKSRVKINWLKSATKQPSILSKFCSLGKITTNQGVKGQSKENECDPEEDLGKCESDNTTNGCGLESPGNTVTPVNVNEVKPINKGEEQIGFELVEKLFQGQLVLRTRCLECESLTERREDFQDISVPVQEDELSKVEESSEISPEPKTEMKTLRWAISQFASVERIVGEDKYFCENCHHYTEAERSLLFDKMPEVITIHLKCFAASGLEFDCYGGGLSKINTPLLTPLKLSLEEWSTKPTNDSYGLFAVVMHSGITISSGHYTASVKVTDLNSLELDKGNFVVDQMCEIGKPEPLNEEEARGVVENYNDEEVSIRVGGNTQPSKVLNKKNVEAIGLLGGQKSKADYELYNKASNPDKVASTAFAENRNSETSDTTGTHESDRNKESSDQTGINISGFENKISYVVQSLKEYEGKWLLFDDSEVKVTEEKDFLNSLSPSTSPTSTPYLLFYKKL

Potency, active:
COC(=O)CN1C(=S)N(c2ccc(OC)cc2)C(=O)/C1=C/c1ccc(N2CCOCC2)cc1 28.2 µM
O=C1c2ccccc2-c2onc3ccc(NCCCn4ccnc4)c1c23 28.2 µM
O=C1C=C(O)c2[nH]c(=O)ccc2C1=O 25.1 µM
Nc1ccc2nc3c(=O)n(CCc4ccccc4)c(=O)[nH]c3nc2c1 15.8 µM
c1ccc(-c2cnn3c(-c4ccccc4)c(-c4ccccc4)nc3n2)cc1 1.41 µM
Oc1sc(C=Nc2ccc(F)cc2)c2ccccc12 31.6 µM
NC(=S)N=Nc1c(O)cc(O)c2[nH]c(=O)ccc12 17.8 µM
CN1/C(=C\C=C2/SC(=S)N(CC(=O)O)C2=O)C(C)(C)c2ccccc21 25.1 µM
CC1(C)N([O-])c2cc([N+](=O)[O-])ccc2[N+]1=O 25.1 µM
CCc1nnc(NS(=O)(=O)c2ccc(NC(=S)NC(=O)/C=C/c3ccc(C(C)C)cc3)cc2)s1 25.1 µM
Cc1ccc(/C(C#N)=C\c2ccc(N3CCOCC3)o2)cc1 25.1 µM
O=C(O)CCNc1cc(N2CCN(C(=O)c3ccco3)CC2)c2noc3c2c1C(=O)c1ccccc1-3 14.1 µM

Activity change, negative = inhibition, inactive:
C[C@@H]1CCC[C@]2(O[C@@H](CCO)C[C@@H](O)[C@@H]2O)O1 -16.1%
COc1cccc(S(=O)(=O)N(C)C[C@H]2OCc3cnnn3CCCC(=O)N([C@@H](C)CO)C[C@@H]2C)c1 -26%
O=C(CCN1C(=O)c2ccccc2S1(=O)=O)Nc1cc(Cl)ccc1Cl 3.39%
COc1cccc(CNC(=O)CNS(=O)(=O)c2ccc3nc(C)sc3c2)c1 37.7%
O=C1[C@H](Cc2ccccc2)NCCCC[C@H](c2ccco2)N1Cc1ccccc1 -0.728%
C=CC[C@H](CC(=O)N[C@H](CO)Cc1ccccc1)C(=O)N[C@H](COC(=O)[C@H](CC=C)CC(=O)OC(C)(C)C)Cc1c[nH]c2ccccc12 -30.7%
O=C(O)CCn1cc(/C=C\C(=O)c2ccc(Cl)cc2)c(-c2cccc(Br)c2)n1 -20.6%
CN(C)CC[C@@H](c1ccc(Br)cc1)c1ccccn1 -17.8%
Nc1nnc(SCC(=O)Nc2ccccc2)s1 -15.3%
C[C@@H]1COC(=O)[C@H](CC(=O)OC(C)(C)C)C/C=C\C[C@@H](CC(=O)NCCO)C(=O)N1 22%
C/C=C(\C)C(=O)OC1CC(C)(C)C[C@H]2C3=CC[C@@H]4[C@@]5(C)CCC(O[C@@H]6O[C@@H](C(=O)O)[C@@H](O)C(O[C@@H]7OC[C@H](O)[C@@H](O)[C@@H]7O[C@@H]7OC(CO)C(O)[C@@H](O)[C@@H]7O)C6O[C@@H]6OC(CO)C(O)C(O)C6O)[C@@](C)(CO)[C@@H]5CC[C@]4(C)[C@]3(C)CC(O)[C@@]12CO (stereo partly specified) -21.9%
C[C@H]1CN([C@@H](C)CO)C(=O)CCCn2cc(nn2)CO[C@@H]1CN(C)C(=O)Nc1cccc(C(F)(F)F)c1 -22.4%
COC(=O)c1ccc(NC(=O)N2CCc3c([nH]c4ccccc34)C2c2ccc(C)cc2)cc1 (stereo unspecified) -25.9%
CN(C[C@H](Cc1ccccc1)N(C[C@@H](CC1CCCCC1)N(CCc1ccccc1)N=O)N=O)N=O -16.4%
CCSc1ccc([C@@H]2[C@@H]3C(=O)N(CC)C(=O)[C@@H]3[C@]3(C(=O)OC)CCCCN23)cc1 -17.3%
O=c1cc2nc(-c3cccs3)nc(SCCOc3ccc(Cl)cc3)n2[nH]1 35.8%
O=C(C[C@H]1C/C=C\CC[C@@H](Cc2ccc(F)cc2)C(=O)OC[C@H]2CCCN2C1=O)N[C@H](CO)Cc1ccccc1 -4.46%
Cc1ccc(O)c(NC(=O)c2noc3c2CCCCC3)c1 -16.5%
C[C@@H]1CN([C@@H](C)CO)C(=O)CCCn2nncc2CO[C@H]1CN(C)S(=O)(=O)c1ccccc1F -6.73%
O=C1/C(=C\c2cccnc2)Sc2ccccc21 -11.8%
CCO[C@H]1OC(C(=O)NC2CC2)=C[C@@H](c2ccc(Br)cc2)[C@@H]1CCCO -23.4%
COC(=O)c1cc(C(=O)c2cc(F)ccc2O)cn2c(=O)c3c(C)c(C)sc3nc12 35.7%
COc1ccc(N(CC(=O)N2CCN(c3cccc(Cl)c3)CC2)S(=O)(=O)c2c(C)noc2C)cc1 -27.1%
C=CC[C@@H](Cc1ccc(F)cc1)C(=O)OC[C@@H]1CCCN1C(=O)[C@@H](CC=C)CC(=O)N[C@H](CO)Cc1ccccc1 -28.4%
CCc1c(C)sc(NC(=O)c2cc(-c3ccc(OC)c(OC)c3)on2)c1C#N -3.31%
C=CCC[C@@H](Cc1ccc(F)cc1)C(=O)OC[C@@H](NC(=O)[C@@H](CC=C)CC(=O)N(CCO)Cc1ccccc1)c1ccccc1 -22.5%
CCc1ccccc1NC(=O)Cn1nnc(C(=O)NCc2cccc(OC)c2)c1N -19%
NC(=O)c1sc2nnc(-c3ccccc3)c(-c3ccccc3)c2c1N 50.3%
COC(=O)[C@@]12CCCCN1[C@H](c1ccc(-c3cccc(Cl)c3)c(OC)c1)[C@H]1C(=O)N(C)C(=O)[C@H]12 -13.8%
Cc1cc(/C=C2/SC(=O)N(CC(=O)N3CCCC3)C2=O)c(C)n1C 79.2%
CN(C)c1ccc(C=C(c2nnnn2-c2ccccc2)c2nnnn2-c2ccccc2)cc1 31.1%
OCC[C@@H]1C[C@H](O)[C@@H](O)[C@]2(CCCCO2)O1 10.9%
CN(C)c1ccc(/C=C(\C#N)c2nc3ccccc3c(=O)[nH]2)cc1 95.2%
C[C@@H]1CN([C@@H](C)CO)S(=O)(=O)c2ccc(Br)cc2O[C@H]1CN(C)C(=O)Nc1ccc2c(c1)OCO2 -24.5%
O=C1NC[C@H](c2ccccc2)OC(=O)[C@@H](Cc2ccc(F)cc2)CC/C=C/C[C@H]1CC(=O)N(CCO)Cc1ccccc1 -8.88%
C[C@H]1Cn2cnc(C(=O)N[C@@H](Cc3c[nH]c4ccccc34)C(=O)OC(C)(C)C)c2C(=O)N1 -24.4%
C=CC[C@@H](CC(=O)OC(C)(C)C)C(=O)OC[C@H]1CCCN1C(=O)[C@@H](CC=C)CC(=O)N[C@H](CO)Cc1ccccc1 -15.5%
Cc1cccc(C(=O)Nc2sc3c(c2C(=O)O)CCCC3)c1 -8.91%
CCO[C@H]1OC(C(=O)NC2CC2)=C[C@@H](c2ccccc2)[C@@H]1CCCO -7.89%
